# From PMC4336329 (PLoS ONE, 2015)
# Hit rate of the full screen: of about 310,000 compounds, about 14,000 (4.5%) showed an effect of 50% or more. The effect is printed as a negative number. The list shows a part of the results.
# Target: human ether-à-go-go-related gene (hERG) potassium channel (human, UniProt Q12809)
# Test: primary screen, population patch clamp on CHO cells stably expressing hERG
# 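Note: peak tail current of the secondary pulse compared with the same well before compound.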
# Sequence of human ether-à-go-go-related gene (hERG) potassium channel (Q12809 whole entry, looked up): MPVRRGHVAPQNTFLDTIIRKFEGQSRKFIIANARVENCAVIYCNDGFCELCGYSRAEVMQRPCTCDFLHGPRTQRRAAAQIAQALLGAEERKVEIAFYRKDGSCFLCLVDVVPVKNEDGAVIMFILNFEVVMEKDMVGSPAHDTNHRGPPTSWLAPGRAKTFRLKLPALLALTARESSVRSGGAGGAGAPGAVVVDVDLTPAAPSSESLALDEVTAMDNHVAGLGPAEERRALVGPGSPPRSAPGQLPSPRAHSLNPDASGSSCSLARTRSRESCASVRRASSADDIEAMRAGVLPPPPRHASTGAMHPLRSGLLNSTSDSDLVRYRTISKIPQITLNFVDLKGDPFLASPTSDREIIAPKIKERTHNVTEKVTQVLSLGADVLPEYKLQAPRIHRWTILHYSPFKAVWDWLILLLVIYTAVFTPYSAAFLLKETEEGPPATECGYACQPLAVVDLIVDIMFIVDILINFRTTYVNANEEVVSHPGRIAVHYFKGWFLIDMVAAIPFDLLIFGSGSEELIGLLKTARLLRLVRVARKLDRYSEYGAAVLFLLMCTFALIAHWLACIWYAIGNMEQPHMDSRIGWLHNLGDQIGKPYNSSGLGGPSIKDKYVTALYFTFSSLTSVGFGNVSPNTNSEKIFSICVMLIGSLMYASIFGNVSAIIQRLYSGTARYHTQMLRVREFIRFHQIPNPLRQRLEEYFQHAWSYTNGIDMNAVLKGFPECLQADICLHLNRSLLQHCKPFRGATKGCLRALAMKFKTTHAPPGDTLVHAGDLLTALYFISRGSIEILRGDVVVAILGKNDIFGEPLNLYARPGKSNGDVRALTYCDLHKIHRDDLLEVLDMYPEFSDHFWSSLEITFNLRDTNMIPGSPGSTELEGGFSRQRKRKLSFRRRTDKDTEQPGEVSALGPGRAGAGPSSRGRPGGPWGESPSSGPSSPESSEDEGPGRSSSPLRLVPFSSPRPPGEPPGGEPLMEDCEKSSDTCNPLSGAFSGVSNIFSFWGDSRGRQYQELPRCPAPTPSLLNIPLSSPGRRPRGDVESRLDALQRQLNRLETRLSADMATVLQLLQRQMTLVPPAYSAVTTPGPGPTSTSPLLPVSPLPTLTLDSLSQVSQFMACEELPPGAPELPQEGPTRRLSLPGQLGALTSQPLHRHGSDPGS
row,SMILES,"hERG current change (%, negative = inhibition) at 10uM"
1,COc1cccc(-c2nnc(SCC(=O)Nc3cc(C)ccc3OC)n2N)c1,-24.5%
2,Cc1nc(NC(=O)c2ccccc2O)sc1C,15.7%
3,COC(=O)c1nnn(-c2nonc2N)c1CN1CCCC1,12.7%
4,COc1ccc(NC(=O)C2CCN(C(=O)c3cccs3)CC2)cc1,-12.4%
5,Cc1c(-c2c(C#N)c(N)nc3c2CCCCCC3)cnn1C,-8.88%
6,COC(=O)/C=C1\N/C(=N\c2nc(C)cc(C)n2)N(c2ccc(C)c(C)c2)C1=O,-9.07%
7,CCc1ccc(NC(=O)c2cnc3n(c2=O)CCS3)cc1,-25.9%
8,COc1ccc(C(=O)OCC(=O)Nc2nc3c(F)c(F)c(F)cc3s2)cc1OC,13.3%
9,C/C(=N\Nc1ccc(Cl)c(C(=O)O)c1)c1ccc2c(c1)OCO2,24.3%
10,COc1ccccc1N1CCN(C2CCCN(C(=O)CCc3ccccn3)C2)CC1 (stereo not drawn),-34.1%
11,O=C1CN(C(=O)c2ccc(Br)o2)C(c2ccccc2)c2cc(Cl)ccc2N1 (stereo not drawn),-28%
12,O=C(CCC(=O)Nc1ccccc1)NNC(=O)CCc1ccccc1,14.5%
13,Cc1ccc(C(=O)Nc2ncc(C)s2)s1,16.8%
14,COc1ccc2c(c1)/C(=N/N1C(=O)c3ccccc3C1=O)C(=O)N2,10.1%
15,O=C(NCc1ccco1)c1nn2c(C(F)(F)F)cc(-c3cccs3)nc2c1Cl,3.45%
16,O=C(Nc1nc2n(n1)C(c1ccc(Cl)cc1)CC(c1ccc(Cl)cc1)N2)c1ccco1 (stereo not drawn),-38.3%
17,COc1cccc(-c2nnc(SCC(=O)NC3CCS(=O)(=O)C3)n2C)c1 (stereo not drawn),4.26%
18,CCc1ccc(NC(=O)C2CCCCC2C(=O)O)cc1 (stereo not drawn),11.8%
19,COc1ccc(CC(=O)NNC(=O)CSc2nnc(Cc3ccc(OC)cc3)n2-c2ccccc2)cc1,-7.6%
20,CCOC(=O)c1c(C)[nH]c(C(=O)OCC(=O)Nc2ccc(OCC)cc2)c1C,-2.99%
21,CCN(CC)c1ccc(N=Nc2ncn[nH]2)cc1,4.53%
22,COC(=O)[C@]1(C)N[C@H](c2ccc(-c3ccccc3)cc2)[C@@H]2C(=O)N(C)C(=O)[C@@H]21.O=C(O)C(F)(F)F,8.15%
23,O=C(CC1(O)C(=O)N(CN2CCOCC2)c2ccccc21)c1ccccc1 (stereo not drawn),-70.4%
24,c1coc(-c2ccnc(-n3cccc3)n2)c1,10%
25,Cc1nnc(SCC2=C(C(=O)O)N3C(=O)C(NC(=O)c4cc(F)c(F)cc4Cl)C3SC2)s1 (stereo not drawn),-2.66%
26,COc1ccc(NC(=O)[C@H](C)NC(=O)C2CCN(S(=O)(=O)c3ccc(OC)cc3)CC2)cc1,12.4%
27,CCCCNC(=O)c1ccccc1NC(=O)CCSc1ccccc1,-9.27%

row,SMILES,"hERG current change (%, negative = inhibition) at 10uM"
1,O=C(/C=C/c1ccco1)NCC1COc2ccccc2O1 (stereo not drawn),-0.808%
2,CCOc1ccc(S(=O)(=O)NCc2ccc3c(c2)OCO3)cc1C(=O)O,13.7%
3,CCN(CC)S(=O)(=O)c1ccc(C(=O)Nc2c3c(nn2C(C)(C)C)CS(=O)(=O)C3)cc1,2.06%
4,O=C(Nc1nnc(SCc2ccccc2)s1)C1=COCCO1,-20.3%
5,CC1(c2ccccc2)NC(=O)N(CC(=O)Nc2ccc(S(=O)(=O)Nc3ncccn3)cc2)C1=O (stereo not drawn),12.6%
6,CCN1C(=O)[C@H]2[C@@H](c3ccc(OC)cc3)N3C(=O)CN(CCOC)C(=O)[C@@]3(Cc3ccccc3)[C@H]2C1=O,-4.3%
7,Cc1ccc(C2NC(C(=O)O)CS2)cc1 (stereo not drawn),8.9%
8,Cc1ccc(-c2noc(CN3CCOCC3)n2)cc1,17.6%
9,Cc1oc(-c2cccc(C(F)(F)F)c2)nc1CN1CCN(c2ccccn2)CC1,-52.5%
10,Cc1oc(-c2ccc3c(c2)OCCO3)cc1C(=O)NC(CCC(=O)O)C(=O)O (stereo not drawn),6.1%
11,CCc1ccccc1NC(=O)c1ccc2nc(N3CCOCC3)sc2c1,-7.23%
12,COc1cc(OC)c2ccc(=O)oc2c1C(CCN1CCCCC1)c1ccc(N(C)C)cc1 (stereo not drawn),-16%
13,CC1=CC2=NC(=O)/C(=C/c3coc4ccc(Cl)cc4c3=O)C(=N)N2O1,-9.44%
14,COc1ccccc1C(=O)Nc1ccc(S(=O)(=O)N2CCc3ccccc32)cc1,-77%
15,O=C1CN(C(=O)C2CCC(=O)N(CCc3ccc(Cl)cc3)C2)CCN1 (stereo not drawn),17.4%
16,N#Cc1ccc(C(=O)Nc2cc(S(=O)(=O)N3CCCC3)ccc2OCC(F)(F)F)cc1,-25.2%
17,Cc1c(N=Nc2c(O)n(-c3ccc(Br)cc3)c(=O)[nH]c2=O)c(=O)n(-c2ccccc2)n1C,14.7%
18,Nc1ccc(C(=O)N2CCN(S(=O)(=O)c3ccc(Cl)s3)CC2)cc1[N+](=O)[O-],-36.2%
19,O=C(NC1CCCCCC1)c1ccc(CN2CCOCC2)cc1,11.3%
20,O=C(CSc1ccc(-c2ccccc2)nn1)N1CCOCC1,-4.41%
21,C/C(=N\NC(=O)CNc1cccc(Cl)c1C)C1CC1,6.52%
22,Cc1ccccc1N1CCN(CCN2C(=O)CC(=C3c4ccccc4-c4ccccc43)C2=O)CC1,6.43%
23,COc1ccc(N(C(=O)c2cnccn2)C(C(=O)NC2CCCCC2)c2ccccc2)cc1 (stereo not drawn),-6.51%
24,O=C(COc1ccc2c3c(c(=O)oc2c1)CCC3)NC1CCN(Cc2ccccc2)CC1,-24.9%
25,CC(=O)Nc1cc2cc(NS(=O)(=O)c3ccc(C)cc3)ccc2oc1=O,14.9%
26,Cc1ccc(S(=O)(=O)NCC(c2ccco2)N2CCOCC2)cc1 (stereo not drawn),-7.6%
27,O=C(CCCCCNC(=O)c1ccccc1Cl)N/N=C/c1ccco1,18.1%
